PubChem BioAssay AID651820 (National Center for Advancing Translational Sciences (NCATS), 2012)
Where “and” joins values, the source holds several entries; their conditions need not be identical. Identical values can stand only once. The campaign covered roughly 340,000 compounds. About 12,000 (3.5%) were called active. Inconclusive results, whose numbers are uncertain, are shown with a selection of clear calls. Calls come from the whole dose curve; as a rule, active = well fitted inhibition curve with a large enough effect; inconclusive = small, poorly fitted or top-dose-only effect, or another doubt; inactive = no such curve, though single readings can be large or run the other way. No potency is given beside an inconclusive call; the fits are too rough. Some structures have more than one record in an assay (separate samples or runs), and their calls can disagree.
Potency is the fitted concentration of half-maximal effect; tags give direction and shape of the fitted curve.

Experiment: qHTS Assay for Inhibitors of Hepatitis C Virus (HCV)
Details: Huh7.5.1 HCVcc-Cre (HCVcc is cell-culture hepatitis C virus) infection, luciferase reporter, 44 h; series mostly up to 41.8 µM
How it was run: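 After 44 h co-culture of compound, cells and HCVcc-Cre (~0.5 moi), substrate is added for 15 min at room temperature and luciferase measured over 15 sec. Cells were seeded at 1,000/well and pre-cultured 4 h.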
With `CC(CN1CCCC1)OC(=O)C(c1ccccc1)c1ccccc1` (centres undefined) the Potency was “inactive”. With `CN(CC(=O)Nc1cccc(F)c1)C(=O)c1ccc(N2CCCCC2)c([N+](=O)[O-])c1` the Potency was inconclusive [inhibitor, partial curve]. In the case of `COc1ccc(-c2oc3ccc(N4CCOCC4)cc3c2C#CCO)cc1`, the Potency is reported as inconclusive [inhibitor, full curve, poor fit]. For `Cc1nc2ccccn2c1C(=O)NC1CCCc2ccccc21` (centres undefined), the Potency was active: 7.08 µM. For `Cc1cc2cc(C)c3nnc(SCC(=O)NCc4ccc5c(c4)OCO5)n3c2cc1C`, the Potency was inconclusive [inhibitor, partial curve]. With `Cn1ncc(Cl)c1C(=O)N1CCN(c2ccccc2)CC1` the Potency was “inactive”. For `CN(CC(=O)Nc1cccc(F)c1)CC(=O)Nc1cccc2ccccc12`, the Potency was inconclusive [inhibitor, full curve]. In the case of `CCOC(=O)c1c(NC(=O)CN2CCCc3ccccc32)sc(C(C)=O)c1C`, the Potency is reported as inconclusive [inhibitor, full curve]. For `COc1cc(S(=O)(=O)N2CCC(O)(c3cccc(C(F)(F)F)c3)CC2)ccc1-n1cnnn1`, the Potency was “inactive and active: 1.58 µM”. With `O=C(C1CC1)N1CCC(c2nc(-c3ccc(S(=O)(=O)N4CCCC4)cc3)no2)CC1` the Potency was inconclusive [inhibitor, single point]. With `Cc1ccc(C)c(S(=O)(=O)N2CCN(C(=O)c3cc(-c4cccs4)nn3-c3ccccc3)CC2)c1` the Potency was inconclusive [inhibitor, partial curve]. For `COc1ccccc1CCNC(=O)C(=O)NCCC1CCCCN1S(=O)(=O)c1cccs1` (centres undefined), the Potency was active: 35.5 µM. In the case of `C=CCNC(=S)N/N=C/c1ccc(-c2ccc(Br)cc2)o1`, the Potency is reported as “inactive”. In the case of `CC(C)(C)OC(=O)N/N=C\c1cccnc1`, the Potency is reported as “inactive”. In the case of `CC(Sc1nnc(CN2CCCC2)n1Cc1ccccc1)C(=O)Nc1ccc(F)c(F)c1F` (centres undefined), the Potency is reported as inconclusive [inhibitor, partial curve]. With `COCCC(=O)N1CCC(Oc2ccc(C(=O)N3C[C@H]4CC[C@H]3C4)cc2)CC1` the Potency was “inactive”. With `Cc1cccn2c(CNCC3(c4ccccc4)CCCC3)c(C(=O)N3CCOCC3)nc12` the Potency was “inactive”. In the case of `CCN1/C(=C/C=C/C=C/C=C/c2sc3ccccc3[n+]2CC)Sc2ccccc21`, the Potency is reported as inconclusive [inhibitor, partial curve]. With `Cc1ccc(/C=N/NC(=O)c2ccccc2OCc2ccc(F)cc2)o1` the Potency was active: 10 µM. With `COC(=O)c1cccc(NC(=O)/C=C/c2ccc([N+](=O)[O-])cc2)c1` the Potency was inconclusive [inhibitor, single point]. With `CC(=O)c1ccc(OCCCC(=O)Nc2ccc(S(=O)(=O)N3CCOCC3)cc2)cc1` the Potency was inconclusive [inhibitor, single point]. For `CC(C)c1ccc(C(=O)OCC(=O)c2c(N)n(C)c(=O)n(C)c2=O)cc1`, the Potency was inconclusive [inhibitor, full curve, poor fit]. For `COc1ccc(C(=O)/C=C/c2ccc3c(c2)OCCO3)cc1`, the Potency was “inactive”. For `CCn1cc(C(=O)NCCCN2CCCC(C)C2)c(=O)c2cc(S(=O)(=O)N3CCc4ccccc4C3)ccc21` (centres undefined), the Potency was active: 11.2 µM. With `Cc1cccn2c(=O)c(C=O)c(Sc3ncccn3)nc12` the Potency was inconclusive [inhibitor, partial curve]. With `c1cncc(-c2noc(-c3ccc4ccccc4c3)n2)c1` the Potency was inconclusive [inhibitor, single point]. With `Cc1cccc(-n2nc3c(c2NC(=O)c2ccc4c(c2)OCO4)CS(=O)(=O)C3)c1C` the Potency was “inactive”. With `COc1ccc(S(=O)(=O)N2N=C(C)Oc3ccccc3C2=O)cc1` the Potency was inconclusive [inhibitor, partial curve]. With `Cc1cc(C)nc(NC(=O)Nc2ccc3c(c2)OCO3)c1` the Potency was “inactive”. With `COc1ccc(OC)c(-c2csc(NC(=O)C3c4ccccc4Oc4ccccc43)n2)c1` the Potency was inconclusive [inhibitor, partial curve]. For `Cc1cccc(NC(=O)Nc2cc(C)cc(C)n2)c1`, the Potency was “inactive”. For `CCN1CC(O)=C(c2nc3ccccc3s2)C1=N`, the Potency was inconclusive [inhibitor, single point]. With `O=C(NCCCC1CCCC1)C1CCC(=O)N(Cc2ccc(Cl)cc2)C1` (centres undefined) the Potency was inconclusive [inhibitor, single point]. For `COc1ccc(/C=N/NC(=O)c2ccc(-c3ccccc3)cc2)cc1O`, the Potency was inconclusive [inhibitor, single point]. For `CCOC(=O)C1=C(C)N(C[C@@H]2CC[C@@H](Cc3ccc(-c4ccccc4)cc3)O2)C(=O)NC1c1cccc([N+](=O)[O-])c1` (some centres undefined), the Potency was inconclusive [inhibitor, partial curve, poor fit]. With `O=S1(=O)OCCC(c2ccccc2)N1Cc1ccccc1` (centres undefined) the Potency was “inactive”. With `Cc1[nH]n(-c2ccc(Br)cc2)c(=O)c1/C=N/NC(=O)c1ccccc1` the Potency was inconclusive [inhibitor, full curve]. With `COc1cc(/C=C(\C#N)c2ccccn2)ccc1OCc1ccc(Cl)cc1` the Potency was inconclusive [inhibitor, partial curve]. For `CC(C)(C)N=C1NC(=NC(C)(C)C)c2ccccc21`, the Potency was inconclusive [inhibitor, partial curve]. With `COc1ccc(OC)c2[nH]c(=O)c(CCNC(=O)c3cc4ccccc4o3)cc12` the Potency was inconclusive [inhibitor, partial curve]. With `S=C(NC1CCCCC1)NC1CC2CCC(C1)N2Cc1ccccc1` (centres undefined) the Potency was inconclusive [inhibitor, full curve, poor fit]. With `COc1ccc(Nc2ccc(S(=O)(=O)N3CCCCCC3)cc2[N+](=O)[O-])cc1` the Potency was inconclusive [inhibitor, partial curve]. With `COc1ccc2c(c1)Sc1ccccc1N2CCN(C)C` the Potency was inconclusive [inhibitor, single point]. In the case of `Cc1ccc(C)c(S(=O)(=O)N2CCN(CC(=O)Nc3ccc([N+](=O)[O-])cc3)CC2)c1`, the Potency is reported as inconclusive [inhibitor, single point].
